ChEMBL document CHEMBL4888484, “Replenishing the malaria drug discovery pipeline: Screening and hit evaluation of the MMV Hit Generation Library 1 (HGL1) against asexual blood stage Plasmodium falciparum ,using a nano luciferase reporter read-out” (2022)
The campaign covered roughly 150,000 compounds. About 540 (0.36%) showed an effect of 50% or more. This is one part of the list.

Test system: Plasmodium falciparum
Experiment: Primary screen in NF54 nanoGlo assay, in single point, at 2uM, 72h; a lower Z score goes with more inhibition
Format: functional, Erythrocyte
Details: timepoint 72 hour

Row | Structure (SMILES) | % Inhibition [%] | Z score
1 | COc1cc(CN2CC(c3nc(-c4cccc(C(F)(F)F)c4)no3)C2)cc(OC)c1 | -8 | 0.87
2 | CC(C)(NCc1nccs1)c1ccccc1Br | -10 | 1.35
3 | Cc1ccc(-c2n[nH]c(NC(=O)[C@@H]3Cc4ccccc4O3)c2C)o1 | -13 | 1.83
4 | COc1ccc(-c2c(C)noc2NC(C)=O)cc1S(=O)(=O)NCc1ccc(C)o1 | 0 | 0.06
5 | CCc1ccc(S(=O)(=O)Nc2cnc(Oc3ccccc3F)nc2)cc1 | -3 | 0.52
6 | CON(C)Cn1nc(-c2c(C)cc(C)cc2C)oc1=S | -17 | 2.51
7 | O=C(NCC#CCOc1ccc2c(c1)OCO2)c1ccncc1 | -11 | 1.41
8 | COc1ccc(CCNC(=O)CN2CC(c3nc(C)no3)C2)cc1OC | 2 | -0.41
9 | O[C@H](c1ccccc1)C1(CNCc2ccccn2)CC1 | -3 | 0.41
10 | Cc1nc(CCCNc2ncc(Cl)cn2)n[nH]1 | -9 | 0.94
11 | CC(C)[C@@H]1N(C(=O)NCCc2cn(C)cn2)CC1(C)C | 9 | -1.28
12 | O=C(NCCc1ccc(OC(F)F)cc1)c1nccn2ccnc12 | -11 | 1.5
13 | CCCCc1nc(C)cc(NCc2cc(Br)cnc2N)n1 | -33 | 3.83
14 | O=C(Cc1ccccc1)N1CCc2nc(N3CCCCC3)nc(Oc3ccc(F)c(F)c3)c2C1 | -7 | 0.9
15 | O=c1nc(CN2CCO[C@H](c3ccc(Cl)cc3)C2)[nH][nH]1 | -18 | 2.47
16 | CC(C)(NC(=O)c1cccs1)c1nc(CC(N)=O)nn1CCO | -1 | 0.05
17 | COCC(NC(C)c1ccc(Br)o1)c1ccco1 (stereo not drawn) | -6 | 0.63
18 | CN1CCN(C(C)(C)CNC(=O)c2csc(-c3ccco3)n2)CC1 | -1 | 0.16
19 | CN(CC(c1ccccc1)c1ccccc1)[C@H]1COC[C@@H]1O | -10 | 1.87
20 | CCn1nc(-n2cnnc2)c(NC(=O)c2ccc(C)cc2)c1C | 30 | -3.98
21 | O=C(Nc1cccc(-c2noc(C3CCCC3)n2)c1)c1ccsc1 | -24 | 4.1
22 | CCc1nnsc1C(=O)N1c2ccccc2C[C@@H]1C | -8 | 0.77
23 | CC1(C)[C@H]2CC[C@]1(C)[C@H](OC(=O)CCc1cscn1)C2 | -6 | 0.49
24 | O=C(CCCn1c(=O)[nH]c2ccc(Br)cc2c1=O)N1CCc2ccccc2C1 | -17 | 2.84
